Where a SMILES comes first, the peptide text is derived from it. Bridges are numbered along the chain shown (N, C = ends).
Experiments:
[1] = tested on: wild-type C57BL/6 mice; experiment: Immunity induction test 5 in wild-type mice (CD40 or PD-L1 antibody conjugates); type: in vivo, mouse; conditions: peptide (3-1) 10.5 micro g, without antibody or with anti-CD40 or anti-PD-L1 antibody 200 micro g, PolyIC:LC 8 micro g; s.c. day 0 and 7, spleen day 14; FIG. 16
Method: In this example, 7 week-old, female, wild-type C57BL/6 mice (CLEA Japan, Inc.) were first divided into four groups with five mice per group, and experiments were performed with the group composition in Table 9.
(§1) Specifically, each drug was subcutaneously administered to the mice of each group every 7 days twice in total (on day 0 and day 7 when the first administration day was taken as day 0).

[2] = molecular target: T1, anti-CD40 antibody (IgG) (Homo sapiens, UniProt P01857, L117A/L118A); experiment: Analysis of affinity of peptide for IgG (BIAcore 8K); type: binding; conditions: anti-CD40 antibody immobilized on CM5 sensor chip, peptide 3 nM to 243 nM, single kinetic mode; for kon: read-out: Association rate constant (Ka); for koff: read-out: Dissociation rate constant (Kd)
T1 construct: a secretion signal, a heavy-chain variable region, and a heavy-chain constant region were connected in tandem; anti-CD40 heavy-chain variable region (FGK45 clone, AEI27236.1, if the anti-mouse CD40 antibody was used); made in house; host or cells: ExpiCHO cells
Method: Peptide (3-1) (SEQ ID NO: 30), peptide (3-2) (SEQ ID NO: 41), peptide (3-3) (SEQ ID NO: 42), peptide (3-4) (SEQ ID NO: 43), and peptide (4) (negative control, SEQ ID NO: 31) were used as the peptides to be evaluated. For the H-2Kb restricted OVA-derived peptides having the aforementioned four different IgG binding peptide sequences, the binding activities to the antibody were evaluated. The IgG for which the affinity was evaluated was immobilized to a CM5 sensor chip (GE Health care) using the anti-CD40 antibody created in Example 1. Specifically, the sample solution of each peptide was prepared by 3-fold dilution series from 3 nM to 243 nM, measured and analyzed with respect to the anti-CD40 antibody immobilized onto the CM5 sensor chip using BIAcore 8K (GE Health care) in the single kinetic mode. The dissociation constant was calculated using Biacore Insight Evaluation software to analyze the observation results.

[3] = tested on: wild-type C57BL/6 mice; experiment: Immunity induction test 1 in wild-type mice (comparison with conventional vaccine regimen); type: in vivo; conditions: peptide (3-1) 21.1 micro g, with or without anti-mouse CD40 antibody 400 micro g and PolyIC:LC 8 micro g; s.c. day 0 and 7, spleen day 14; FIG. 8
Method: 7 week-old, female, wild-type C57BL/6 mice (CLEA Japan, Inc.) were divided into five groups, with six mice per group, and experiments were performed with the group composition in Table 4.
as §1, with “0) . […] Induction of Ova specific T cells was evaluated based on the proportion of tetramer-positive cells in the CD8-positive T cells.” for “0).”

[4] = tested on: wild-type C57BL/6 mice; experiment: Immunity induction test 6 in wild-type mice (conjugate vs non-conjugating peptide plus antibody); type: in vivo, mouse; conditions: peptide (3-1) or peptide (4) 10.5 micro g + anti-CD40 or anti-PD-L1 antibody 200 micro g + PolyIC:LC 8 micro g; s.c. day 0 and 7, spleen day 14; FIG. 17
Method: 7 week-old, female, wild-type C57BL/6 mice (CLEA Japan, Inc.) were divided into five groups, with six mice per group, and experiments were performed with the group composition in Table 10.
Specifically, each drug was subcutaneously administered to the mice of each group every 7 days twice in total (on day 0 and day 7 when the first administration day was taken as day 0) .

T1 sequence (P01857 1-330 isoform P01857-1 L117A/L118A, other chains not shown): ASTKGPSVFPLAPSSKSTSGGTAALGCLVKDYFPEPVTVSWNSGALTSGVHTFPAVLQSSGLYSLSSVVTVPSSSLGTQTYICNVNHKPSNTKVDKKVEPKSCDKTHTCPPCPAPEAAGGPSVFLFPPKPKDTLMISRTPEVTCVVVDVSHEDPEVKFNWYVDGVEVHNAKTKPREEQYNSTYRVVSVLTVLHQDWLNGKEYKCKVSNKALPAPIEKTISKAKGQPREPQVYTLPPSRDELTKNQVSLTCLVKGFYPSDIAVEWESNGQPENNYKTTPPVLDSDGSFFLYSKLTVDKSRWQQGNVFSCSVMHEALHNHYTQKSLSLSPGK

Molecule: CC[C@H](C)[C@H](NC(=O)[C@H](CO)NC(=O)[C@H](CCC(=O)O)NC(=O)[C@H](CC(C)C)NC(=O)[C@H](CCC(N)=O)NC(=O)[C@@H](N)CCC(=O)O)C(=O)N[C@H](C(=O)N[C@@H](CC(N)=O)C(=O)N[C@@H](Cc1ccccc1)C(=O)N[C@@H](CCC(=O)O)C(=O)N[C@@H](CCCCN)C(=O)N[C@@H](CC(C)C)C(=O)N[C@H](C(=O)N[C@@H](CCC(=O)O)C(=O)N[C@@H](Cc1c[nH]c2ccccc12)C(=O)N[C@H](C(=O)NCC(=O)N1CCC[C@H]1C(=O)N[C@@H](CC(=O)O)C(=O)N[C@H]1CSSC[C@@H](C(=O)N[C@H](C(=O)N[C@@H](Cc2ccccc2)C(=O)N[C@@H](Cc2c[nH]cn2)C(=O)O)[C@@H](C)O)NC(=O)[C@H](Cc2c[nH]c3ccccc23)NC(=O)[C@H](C(C)C)NC(=O)[C@H](CC(C)C)NC(=O)[C@H](CCC(=O)O)NC(=O)CNC(=O)[C@H](CCCNC(=N)N)NC(=O)[C@H](Cc2c[nH]cn2)NC(=O)[C@H](Cc2ccc(O)cc2)NC(=O)[C@H](C)NC1=O)[C@@H](C)O)[C@@H](C)O)[C@@H](C)CC [Peptide (3-1), EQLESIINFEKLTEWT GPDCAYHRGELVWCTFH] (H-EQLESIINFEKLTEWTGPDCAYHRGELVWCTFH-OH; disulfide 20-30; N-terminus and C-terminus assumed)
- Ova-specific T cell induction [1]: an ability to promote T cell induction was shown
- Kd [2]: 64.9 nM
- kon [2]: 331000 M⁻¹ s⁻¹
- koff [2]: 0.0215 s⁻¹
- Induction of Ova specific T cells (proportion of tetramer-positive cells in CD8-positive T cells) [3]: an ability to promote T cell induction was exhibited

Molecule: CC[C@H](C)[C@H](NC(=O)[C@H](CO)NC(=O)[C@H](CCC(=O)O)NC(=O)[C@H](CC(C)C)NC(=O)[C@H](CCC(N)=O)NC(=O)[C@@H](N)CCC(=O)O)C(=O)N[C@H](C(=O)N[C@@H](CC(N)=O)C(=O)N[C@@H](Cc1ccccc1)C(=O)N[C@@H](CCC(=O)O)C(=O)N[C@@H](CCCCN)C(=O)N[C@@H](CC(C)C)C(=O)N[C@H](C(=O)N[C@@H](CCC(=O)O)C(=O)N[C@@H](Cc1c[nH]c2ccccc12)C(=O)N[C@H](C(=O)NCC(=O)N1CCC[C@H]1C(=O)N[C@@H](CC(=O)O)C(=O)N[C@H]1CSSC[C@@H](C(=O)N[C@H](C(=O)N[C@@H](Cc2ccccc2)C(=O)N[C@@H](Cc2c[nH]cn2)C(=O)O)[C@@H](C)O)NC(=O)[C@H](Cc2c[nH]c3ccccc23)NC(=O)[C@H](C(C)C)NC(=O)[C@H](CC(C)C)NC(=O)[C@H](CCC(=O)O)NC(=O)CNC(=O)[C@H](CCCNC(=N)N)NC(=O)[C@H](Cc2c[nH]cn2)NC(=O)[C@H](Cc2c[nH]c3ccccc23)NC(=O)[C@H](C)NC1=O)[C@@H](C)O)[C@@H](C)O)[C@@H](C)CC [Peptide (3-3), EQLESIINFEKLTEWT GPDCAWHRGELVWCTFH] (H-EQLESIINFEKLTEWTGPDCAWHRGELVWCTFH-OH; disulfide 20-30 (inferred); N-terminus and C-terminus assumed)
- Affinity (KD) [2]: higher affinity than peptide (3-2)
- kon [2]: 275000 M⁻¹ s⁻¹
- koff [2]: 0.0181 s⁻¹

Molecule: CC[C@H](C)[C@H](NC(=O)[C@H](CO)NC(=O)[C@H](CCC(=O)O)NC(=O)[C@H](CC(C)C)NC(=O)[C@H](CCC(N)=O)NC(=O)[C@@H](N)CCC(=O)O)C(=O)N[C@H](C(=O)N[C@@H](CC(N)=O)C(=O)N[C@@H](Cc1ccccc1)C(=O)N[C@@H](CCC(=O)O)C(=O)N[C@@H](CCCCN)C(=O)N[C@@H](CC(C)C)C(=O)N[C@H](C(=O)N[C@@H](CCC(=O)O)C(=O)N[C@@H](Cc1c[nH]c2ccccc12)C(=O)N[C@H](C(=O)NCC(=O)N1CCC[C@H]1C(=O)N[C@@H](CC(=O)O)C(=O)N[C@H]1CSSC[C@@H](C(=O)N[C@H](C(=O)N[C@@H](Cc2ccccc2)C(=O)N[C@@H](Cc2c[nH]cn2)C(=O)O)[C@@H](C)O)NC(=O)[C@H](Cc2c[nH]c3ccccc23)NC(=O)[C@H](C(C)C)NC(=O)[C@H](CC(C)C)NC(=O)[C@H](CCC(=O)O)NC(=O)CNC(=O)[C@H](CC(C)C)NC(=O)[C@H](Cc2c[nH]cn2)NC(=O)[C@H](Cc2c[nH]c3ccccc23)NC(=O)[C@H](C)NC1=O)[C@@H](C)O)[C@@H](C)O)[C@@H](C)CC [Peptide (3-4), EQLESIINFEKLTEWT GPDCAWHLGELVWCTFH] (H-EQLESIINFEKLTEWTGPDCAWHLGELVWCTFH-OH; disulfide 20-30 (inferred); N-terminus and C-terminus assumed)
- Affinity (KD) [2]: higher affinity than peptide (3-2) and peptide (3-3)
- kon [2]: 250000 M⁻¹ s⁻¹
- koff [2]: 0.00444 s⁻¹

Molecule: EQLESIINFEKLTEWT GPDCAYHRGEAAACTFH [Peptide (4), control peptide, negative control, reference compound]
- Induction of Ova-specific T cells [4]: T cell induction was exhibited
- Affinity (KD) [2]: low affinity
